# Hit rate of the full screen: of about 310,000 compounds, about 14,000 (4.5%) showed an effect of 50% or more. The effect is printed as a negative number. This is one part of the list.
# Target: human ether-à-go-go-related gene (hERG) potassium channel (human, UniProt Q12809)
# Assay: primary screen, population patch clamp on CHO cells stably expressing hERG
# 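Also: peak tail current of the secondary pulse compared with the same well before compound.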
# Sequence of human ether-à-go-go-related gene (hERG) potassium channel (Q12809 whole entry, looked up): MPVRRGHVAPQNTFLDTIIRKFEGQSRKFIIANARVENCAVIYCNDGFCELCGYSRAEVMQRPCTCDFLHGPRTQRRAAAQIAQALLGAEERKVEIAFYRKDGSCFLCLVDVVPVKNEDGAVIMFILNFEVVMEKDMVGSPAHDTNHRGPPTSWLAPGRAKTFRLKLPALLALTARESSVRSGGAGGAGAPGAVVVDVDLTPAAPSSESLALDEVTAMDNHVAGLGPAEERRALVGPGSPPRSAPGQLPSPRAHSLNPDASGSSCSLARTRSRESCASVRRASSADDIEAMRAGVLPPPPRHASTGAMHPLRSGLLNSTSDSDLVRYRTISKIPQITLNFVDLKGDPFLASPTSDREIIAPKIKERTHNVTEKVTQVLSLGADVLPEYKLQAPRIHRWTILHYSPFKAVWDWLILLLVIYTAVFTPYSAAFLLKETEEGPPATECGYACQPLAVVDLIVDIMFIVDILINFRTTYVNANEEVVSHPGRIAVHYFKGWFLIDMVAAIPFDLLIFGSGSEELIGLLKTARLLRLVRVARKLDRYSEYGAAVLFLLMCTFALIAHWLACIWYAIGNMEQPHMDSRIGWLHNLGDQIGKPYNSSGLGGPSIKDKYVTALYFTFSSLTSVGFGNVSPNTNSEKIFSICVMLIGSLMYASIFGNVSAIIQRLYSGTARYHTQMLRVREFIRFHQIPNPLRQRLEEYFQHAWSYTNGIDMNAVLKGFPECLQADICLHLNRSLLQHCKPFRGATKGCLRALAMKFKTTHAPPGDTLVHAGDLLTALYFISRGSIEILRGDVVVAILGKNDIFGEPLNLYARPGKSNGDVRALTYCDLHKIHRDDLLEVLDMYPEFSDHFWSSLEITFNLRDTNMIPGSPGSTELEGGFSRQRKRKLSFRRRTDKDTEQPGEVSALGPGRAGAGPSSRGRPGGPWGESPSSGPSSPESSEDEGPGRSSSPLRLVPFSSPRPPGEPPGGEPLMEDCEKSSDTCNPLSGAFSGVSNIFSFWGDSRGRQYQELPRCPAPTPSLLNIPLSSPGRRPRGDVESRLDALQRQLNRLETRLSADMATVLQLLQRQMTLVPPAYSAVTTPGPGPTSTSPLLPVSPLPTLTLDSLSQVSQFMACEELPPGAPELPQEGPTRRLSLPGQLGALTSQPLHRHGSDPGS
row,Compound,"hERG current change (%, negative = inhibition) at 10uM"
1,NNC(=O)CS(=O)(=O)CS(=O)(=O)CC(=O)NN,12.2%
2,CCN(CC)CC(O)CN1C(=O)NC(C)(C)C1=O (centres unmarked),22.3%
3,CCOc1ccccc1C(=O)Nc1ccsc1C(=O)OC,-0.813%
4,FC(F)(F)Oc1ccc(NC2=NCCCS2)cc1,-24.4%
5,O=C(CN1CCCCC1)NNc1nc(-c2ccccc2)c2cc(Br)ccc2n1,-55.4%
6,Cc1[nH]c2ccccc2c1C(=O)CN1CCCC(C)C1 (centres unmarked),14%
7,Cc1cc(CNC(=O)c2ccc3c(c2)OCO3)c2ccccc2n1,5.24%
8,Cl.O=C(COc1ccc(Br)cc1CNC1CCCC1)Nc1ccccc1,-73.1%
9,O=C(COC(=O)c1c2c(nc3ccccc13)CCCC2)Nc1ccc2c(c1)OCO2,3.1%
10,COc1cccc(CNC(=O)CSc2nnc3c(n2)[nH]c2ccccc23)c1,-34.4%
11,Cc1cc(C(=O)CCl)c(C)n1-c1cccc(S(=O)(=O)N2CCOCC2)c1,-77.4%
12,c1ccc(COc2ccccc2CNC2CCCC2)cc1,-39.7%
13,Nc1c(C(=O)O)sc2nc(-c3ccccc3)cc(-c3ccc(F)cc3)c12,18.8%
14,O=C(NNC(=O)c1cc(-c2ccncc2)nc2ccccc12)c1ccccc1F,-22.3%
15,COC(=O)C1(Cc2ccccc2)NC(c2ccc(F)cc2)C2C(=O)N(C)C(=O)C21 (centres unmarked),-3.11%
16,CCCn1nnnc1SCC(=O)c1ccc2c(c1)OCCO2,-16.6%
17,CCOc1ccc(N(CC(=O)Nc2ccc(C)cc2)S(=O)(=O)c2c(C)noc2C)cc1,-1.76%
18,Cc1c(NC(=O)c2cc(C3CC3)on2)c(=O)n(-c2ccccc2)n1C,3.21%
19,Cc1ccc(-c2nc(SC(C)C(=O)N3CCCC3)n[nH]2)cc1 (centres unmarked),19.5%
20,CC(=O)N1CCOc2ccc(S(=O)(=O)N3CCC(C(=O)Nc4ccc(C)cc4)CC3)cc21,-14.8%
21,O=C(Nc1ccc(S(=O)(=O)Nc2nccs2)cc1)c1cccc(S(=O)(=O)N2CCOCC2)c1,9.27%
22,O=C(Nc1ccc(-n2cnnn2)cc1)c1cn2ccccc2n1,16.6%

row,Compound,"hERG current change (%, negative = inhibition) at 10uM"
1,Cc1cc(NC(=O)CNC(=O)C2CCCCC2)no1,6.31%
2,CCOc1ccccc1C(=O)NCCCN1CCN(CCCNC(=O)c2ccccc2OCC)CC1,-53.3%
3,COc1ccc(/C=N/NC(=O)c2[nH]ncc2Br)c(OC)c1,-5.3%
4,Cc1ccc(NC2OC(CO)C(O)C(O)C2O)cc1 (centres unmarked),-18%
5,CCCC(C(=O)Nc1cccc(S(=O)(=O)N2CCCC2)c1)c1ccccc1 (centres unmarked),-48.2%
6,O=C(CSc1nc(O)cc(=O)[nH]1)N1CCCc2ccccc21,18.9%
7,Cn1cc(S(=O)(=O)Oc2ccccc2)c(=O)n(C)c1=O,1.06%
8,O=C(Nc1ccn(Cc2ccccc2F)n1)c1ccc(COc2cccc(Br)c2)cc1,5.54%
9,CC(C)CCn1c(COc2ccccc2)n[nH]c1=S,14.9%
10,O=C(COC(=O)C1C2CC3OC(=O)C1C3C2)Nc1ccc(Cl)cc1 (centres unmarked),-32.5%
11,CN(CC(=O)Nc1ccc(C#N)cc1)Cc1ccc(Cl)c(Cl)c1,-60.8%
12,C/C(=N/NC(=O)Cc1cc(=O)[nH][nH]1)c1ccc([N+](=O)[O-])cc1,-0.979%
13,CN(C)CCN(C(=O)c1ccc2ccccc2c1)c1nc2ccc(F)cc2s1.Cl,11.1%
14,COc1ccc(NC(=O)c2cc(C)cc(C)c2)cc1S(=O)(=O)N1CCCCC1,-0.0501%
15,CCc1ccccc1NC1Nc2cc(C)nn2S1 (centres unmarked),5.39%
16,COc1ccc(C(C#N)N2N=C(C)CC2(C)C)cc1OC (centres unmarked),14.4%
17,O=C(NCCS(=O)(=O)NCc1ccccn1)c1ccccc1,8.92%
18,CCc1ccc(-c2cc(C(=O)N/N=C/c3ccccn3)[nH]n2)cc1,-41.7%
19,CC1(C)CC(O)(CCNCc2ccc3c(c2)OCO3)CCO1 (centres unmarked),-4.43%
20,O=C(Nc1cccc([N+](=O)[O-])c1)c1cc2ccccc2cc1O,11.1%
21,O=C(NCc1ccccc1)c1cccc(Br)n1,2.99%
22,O=c1ccc(Cl)nn1-c1ccccc1,10.3%
